According to the supplement of paper PMC3334620:
Whole data set: some 33,000 sequences, median “E-score (-0.5 to 0.5)” near -0.013, cut for the highest 2% near 0.3. Some of the results follow.

What follows are sequences tested against T1, Msn1 (UniProt P22148) (assay: PBM E-score (8-mer binding enrichment) (E-score (-0.5 to 0.5)); higher = stronger / more preferred TF binding; most listed sequences are background and not binding sites). Details: protein concentration: 200 nM; construct: GST-full length.
T1 sequence: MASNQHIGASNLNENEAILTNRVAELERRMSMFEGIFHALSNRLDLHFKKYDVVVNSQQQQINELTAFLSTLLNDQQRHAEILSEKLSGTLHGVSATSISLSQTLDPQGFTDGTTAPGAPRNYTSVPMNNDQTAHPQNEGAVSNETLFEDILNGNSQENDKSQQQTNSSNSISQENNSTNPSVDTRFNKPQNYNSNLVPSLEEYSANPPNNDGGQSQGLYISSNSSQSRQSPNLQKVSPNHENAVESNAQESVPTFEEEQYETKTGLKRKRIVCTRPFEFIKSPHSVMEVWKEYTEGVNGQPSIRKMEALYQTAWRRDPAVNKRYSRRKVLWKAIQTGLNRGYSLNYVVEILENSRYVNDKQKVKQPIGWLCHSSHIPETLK
Method in brief: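 For each ungapped eight-base word taken together with its reverse complement, the Universal PBM Analysis Suite assigned an E-score. Binding data came from GST-tagged yeast transcription factors, applied at about 100-200 nM, on universal all-10-mer Agilent arrays made double-stranded by primer extension. Fluorescent anti-GST marked bound protein, and scans were normalised with masliner.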

Sequence | PBM E-score
ACGGGTGC | -0.0788
GCTGCCTA | -0.156
AAATCTAC | 0.0823
CGCCTTTA | -0.0643
CAATTATA | 0.116
CGGTAGTA | 0.0735
GCTTGTGA | -0.196
CCAGTCTA | -0.127
CGGCACGA | 0.145
ACACCTAG | 0.00645
ACCTGTCA | 0.00165
CACCTATG | -0.057
CATGTTCC | 0.0014
GCGTGCTA | -0.252
CTGCTCTA | 0.041
ATAGATGG | -0.327
AAAGCGGT | 0.0231
ATGTTCGC | -0.0354
CAAGAGGC | -0.241
CCTTCGAC | -0.0883
GATCTCTA | -0.115
ACTTAACG | -0.0158
CACGCTGC | -0.184
AGGTCCAC | -0.067
ACAAGCGA | 0.202

Sequence | PBM E-score
GAGCGGCC | -0.151
CCTGATAC | 0.12
AAATCTGT | 0.138
CAGTGTTC | 0.00314
CCACTGCG | -0.0568
ATCTCGTC | 0.165
AGCCCAAG | -0.267
AAAATAGT | 0.0988
CCAGTTGC | -0.24
TGCCCCCA | -0.171
TGAGAGCA | -0.137
ACAGCGAA | -0.0342
ATCATTAA | 0.207
AACCAATA | 0.0128
AAGTGTTG | 0.0761
CCCCTCCG | -0.121
TACAGTCA | 0.0587
AACGAACC | 0.0557
ACGAAGAC | 0.0468
CGCTCTGA | -0.0541
CCCCGGTC | -0.26
CATCAGCA | -0.221
CGTGGCTA | -0.128
ACCGTTCG | 0.0205
CATTGGGA | 0.146

Sequence | PBM E-score
AATCAATA | 0.0582
GATCCATC | -0.0507
CTTCGTCA | 0.0472
CGATACAC | -0.137
CCCGCCAC | -0.135
TACGCCAA | -0.191
AAAGGGCG | -0.108
CGCCGAGA | -0.0986
ATTTGAAC | -0.0178
ATAAATCC | 0.0224
AACAAAGT | 0.157
CCCGATTC | 0.142
ACACTGAC | 0.119
ACACGGGC | -0.00403
AGTACTCC | -0.132
CGTCAGCA | -0.129
GATCTAAC | 0.0165
AATTTTCT | 0.0709
AACAGTCT | -0.0205
AATATATG | 0.131
AGTTCGCG | 0.0311
ATAAAGCG | 0.179
CCGTCCGC | -0.252
GATGAGAA | -0.0683
CAGGGTGC | -0.249

Sequence | PBM E-score
AAGCAACA | -0.0649
AAATAGAC | -0.015
AGAGGTTG | -0.182
GTACCATA | 0.0461
CGTACGTC | 0.00863
GTCCAAAC | 0.175
AACAGAGG | -0.14
ACTCACAC | -0.0577
GCGAGGAA | -0.148
GGCTCCAC | -0.386
GATGGTCC | -0.0591
ACGCAATA | 0.0746
TATGTTGA | 0.0896
CCAGGACA | 0.469
GACGTCCA | 0.207
AGTCAAGG | -0.102
ACACTTAC | 0.19
GCTCGAAC | -0.114
CGGTTAGA | -0.22
CCCCGAGG | -0.0295
ACGTTCTG | 0.0235
ACATTGCA | 0.0905
AACGCCCG | -0.0596
CATGAAGC | 0.0531
CTAGAACC | -0.157

Sequence | PBM E-score
ATCCGCAT | 0.0989
AAACTTGT | 0.273
CGATCTCA | -0.00064
GGGCCGAA | -0.19
ATGTGAAA | -0.0025
ACCACCAA | -0.185
ACAATTCT | 0.188
GCTGTAGA | 0.00459
AAGTGCTC | -0.172
CTCAGTGA | -0.0334
ATGATCAG | 0.0415
CAGTAGTA | -0.00219
TCGCATCA | 0.0502
GAGTATCA | -0.144
GGGTTCAC | -0.0777
CATAGACC | -0.0541
ATGCTGTA | 0.165
GAGTATCC | -0.0665
GGGATCTA | -0.115
ATAGCCGA | 0.0849
TCGTCCCA | 0.213
AACGCAGT | -0.207
CTAACAGC | -0.0745
CAGCCCTA | 0.00696
AATATATA | 0.209

Sequence | PBM E-score
ATTTGTAA | 0.169
ATTTCGTG | 0.179
AGGACCCG | -0.0271
GAACCTTA | 0.0292
ATGGTTGG | 0.00062
AGTAATGG | -0.0129
AGCTTCCT | 0.0738
AATCGGAA | 0.16
AAAACCGT | 0.118
GGGGAGGA | -0.274
CGCCAACA | 0.0678
CTTCTACA | 0.0255
GCAGGGAA | -0.0187
CTTGTAAA | 0.114
GGCGGAGA | -0.101
GCATCGGC | -0.0598
GTAGGTTA | -0.0951
GTCTAAGA | 0.179
ACCTTTAT | -0.0516
AGGAGACA | 0.0232
CTGGGTTC | -0.119
GTAAGAGA | -0.0347
GCGTACCC | -0.142
CAATTCGC | 0.231
ACGTGCTA | -0.167

Sequence | PBM E-score
CACTGCGA | -0.178
CTTCTCAA | -0.118
GTTTTACA | -0.0921
CTCTATTC | -0.0327
GTAATGAC | 0.126
ATCCACGC | -0.11
GGTCCCTA | -0.0166
CGATATAC | -0.0803
CTGTCGTA | -0.0467
GCCCTCAA | -0.252
ACCGGAGA | 0.142
CGTAGAGA | 0.0273
CTCGCCGC | -0.0571
AACCCGAG | 0.13
ATCCAGGC | -0.191
CTCTAGCC | -0.137
GGAAGCCC | -0.227
CCGAAGAC | 0.149
CGCGTTGA | -0.0678
GTATACCA | -0.0444
AAACACTA | 0.0993
AAAAGGGA | 0.0884
